From PubChem BioAssay AID1347073 (National Center for Advancing Translational Sciences (NCATS), 2019) come the findings set out here.

Structures are written as SMILES. In all, about 45,000 compounds went through this assay and about 200 (0.44%) were called active. Not shown: some 7% with an inconclusive outcome. The call rests on the fitted dose curve; in most records, active means well fitted activation curve with a large enough effect; inconclusive means small, poorly fitted or top-dose-only effect; inactive means no such curve, though single readings can be large or run the other way. Some of the results follow.
Potency means the concentration at half of the fitted maximal effect.

The assay is described as follows: qHTS of TDP-43 Inhibitors: NCGC Sytravon Library Screen. Further: nearly all actives have a fitted effect of over 55% in size. On growth rescue (activation): 0% is about no effect. Conditions: yeast TDP-43 toxicity rescue, BacTiter-Glo growth, 24 h; series mostly up to 46.1 µM; growth rescue (activation): at the top concentration. A digest of the protocol:
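TDP-43-expressing yeast, pregrown in raffinose, seeded at OD600 0.02 in galactose medium with compound for 24 hr at 30 deg C. Growth read by BacTiter-Glo luminescence, so rescue of toxicity appears as activation.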
(Quantitative high-throughput screening tests each substance at several concentrations.)
`O=C(NCCN1CCOCC1)C1CC(=O)N(c2ccc(F)cc2)C1` (stereo unspecified): the “growth rescue (activation)” value is inactive: -15.1%. Consider `Cc1ccc(NS(=O)(=O)c2ccc(Br)s2)nc1`, for which the “growth rescue (activation)” value is inactive: 17.1%. On the same count and under the same terms, for `CC(C)(C)C1CCC(C(=O)OCC(=O)Nc2ccc3[nH]c(=O)[nH]c3c2)CC1` (stereo unspecified) the value was inactive: 18.5%; for `O=C(CSc1nnc(COc2ccccc2)o1)N1CCCCC1`, inactive: 9.77%.

`O=C(Nc1nccs1)c1cc2c(s1)CCCCC2`: the Potency is active: 7.08 µM. Consider `CCOC(=O)N1CCN(S(=O)(=O)c2ccc3c(c2)SCC(=O)N3)CC1`, for which the “growth rescue (activation)” value is inactive: 8.48%.

`Cc1ccc2[nH]c3c(N4CCc5ccccc5C4)ncnc3c2c1`: the “growth rescue (activation)” value is inactive: 30.2%. On the same count and under the same terms, for `O=C(CCNC(=O)c1ccccc1)Nc1ccc(Cl)c(S(=O)(=O)N2CCCCC2)c1` the value was inactive: 3.88%; for `O=C(COC(=O)c1ccccc1NS(=O)(=O)c1ccc(Cl)cc1)NCc1ccccc1`, inactive: -11.8%; for `O=C(Cn1cc2c(n1)CCCCC2)Nc1ccccc1Cl`, inactive: 24.5%. The same measure, in the same setting: for `Cc1cccc(N2CCN(c3ccc(N4C(=O)CCCC4=O)cc3[N+](=O)[O-])CC2)c1C` the value was inactive: 29%; for `CS(=O)(=O)Nc1ccc(C(=O)Nc2ccc(S(=O)(=O)Nc3nccs3)cc2)cc1`, inactive: -1.06%. For the compound `COc1cc(/C=C(\C#N)c2nc3ccccc3[nH]2)ccc1OC(=O)c1ccco1`, the “growth rescue (activation)” value was inactive: -6.57%. Still for that read-out and setting: for `O=C(NCCCNc1ccc(C(F)(F)F)cc1[N+](=O)[O-])c1ccc(F)cc1` the value was inactive: -1.39%; for `C/C(=N\NC(=O)c1ccncc1)c1cc2ccccc2o1`, inactive: -0.153%; for `CC(C)Cc1ccc(CN2CCCC(NC(=O)CCN3CCOCC3)C2)cc1` (stereo unspecified), inactive: 16.9%. On to `O=C(CN1CCN(c2ccccc2O)CC1)NNC(=O)c1ccc(Cl)cc1`, for which the “growth rescue (activation)” value was inactive: -3.47%. Take `CCc1nc2c(OCC(=O)c3ccc(Cl)cc3Cl)cccn2c1N(C=O)Cc1ccc(OC)cc1`: the “growth rescue (activation)” value was inactive: 9.71%. On to `Cc1cnc(CN(C)Cc2c(C(=O)N3CCCCCCC3)nc3ccc(Cl)cn23)[nH]1`, for which the “growth rescue (activation)” value was inactive: 10.8%. The same measure, in the same setting: next, `COc1cccc(N2CCN(CC(=O)Nc3ccc(SC(F)F)cc3)CC2)c1`: inactive: 11.3%; `CC(C)(C)c1cc(NC(=O)Nc2ccc(Br)cc2Cl)no1`: inactive: 12.1%; `COc1cccc(CNC(=O)COC(=O)c2c(NC(C)=O)sc(C)c2C)c1`: inactive: -55.1%.

`COc1ccc(/C=C(/NC(=O)c2ccc(OC)c(OC)c2)C(=O)NCCCn2ccnc2)cc1`: the “growth rescue (activation)” value was inactive: 7.39%. As to `COc1ccc(NC(=O)C2CCC2)cc1S(=O)(=O)Nc1cc(C)ccc1Br`, the “growth rescue (activation)” value was inactive: 16%. Still for that read-out and setting: for `COCCCN1C(=O)c2ccc(C(=O)OCC(=O)NCCc3ccccc3)cc2C1=O` the value was inactive: 12.5%; for `CCOc1ccc(N2C(=O)c3ccc(C(=O)OCC(=O)N(CC)C4CCS(=O)(=O)C4)cc3C2=O)cc1` (stereo unspecified), inactive: 15%. The same measure, in the same setting: for `CCn1cc(C(=O)N2CCN(c3ccccn3)CC2)c(=O)c2cc(S(=O)(=O)N3CCC(C)CC3)ccc21` the value was inactive: 10.6%. Same read-out and setting: next, `N#Cc1cn(CCOC(=O)c2cccc(C(F)(F)F)c2)c(=O)[nH]c1=O`: inactive: -5.4%; `CC(=O)C1=C(O)C(=O)N(Cc2ccco2)C1c1ccccc1F` (stereo unspecified): inactive: -7.47%; `NS(=O)(=O)c1cccc(NC(=O)c2cc(=O)c3ccccc3o2)c1`: inactive: 3.78%. For the compound `Nc1nc(-c2cccnc2)nn1C(=O)c1ccc(Cl)cc1`, the “growth rescue (activation)” value was inactive: 1.38%. The same measure, in the same setting: next, `CN1CCN(c2ccc(NC(=O)c3ccc(C#N)cc3F)cc2Cl)CC1`: inactive: 2.62%. Consider `CCCCCCC(=O)Oc1cccc(N2C(=O)C3CCCCC3C2=O)c1` (stereo unspecified), for which the “growth rescue (activation)” value is inactive: 10.9%. In the case of `CC(=O)c1cccc(NC(=O)CCS(=O)(=O)c2ccc(Br)s2)c1`, the “growth rescue (activation)” value was inactive: -3.93%.

As to `CCCN(CCC)C(=O)C1CC(=O)OC12CCCCC2` (stereo unspecified), the “growth rescue (activation)” value is inactive: -10.9%. For the compound `COc1ccc(OC)c(CN2CCN(Cc3cc(=O)oc4cc(O)ccc34)CC2)c1`, the “growth rescue (activation)” value is inactive: -7.42%. For `CN(Cc1ccccc1)Cc1nc2scc(-c3ccccc3)c2c(=O)[nH]1`, the “growth rescue (activation)” value is inactive: 14.7%. Same read-out and setting: next, `COCCn1c(SCC(=O)Nc2nc(C)cs2)nnc1C(C)C`: inactive: 1.21%; `CCc1nnc(NC(=O)CN2CCN(c3ccccc3F)CC2)s1`: inactive: 2.44%.

Take `O=C1/C(=C/c2cccs2)CCC1C1CCCC1` (stereo unspecified): the “growth rescue (activation)” value is inactive: 6%. Still for that read-out and setting: for `COc1ccccc1N(CC(=O)NCCN1CCOCC1)S(=O)(=O)c1ccc(C)cc1` the value was inactive: -7.59%; for `CC[n+]1ccc(C[n+]2ccccc2)c2ccccc21`, inactive: 7.9%. On the same count and under the same terms, next, `Cc1ccc(CNS(=O)(=O)c2ccc(-n3cnnn3)c(C)c2)cc1`: inactive: -1.36%; `CSc1cccc(NC(=O)C2C3C=CC4(O3)C2C(=O)N(CCN2CCOCC2)C4C(=O)NC2CCCCC2)c1` (stereo unspecified): inactive: 1.75%. Still for that read-out and setting: for `CCn1c2ccc(F)cc2c2nnc(SCCN3CCCCC3)nc21` the value was inactive: 3.41%. Take `O=C(CN(C(=O)CCC(=O)Nc1nccs1)c1ccc2c(c1)OCO2)NCc1ccccc1`: the “growth rescue (activation)” value was inactive: -8.63%. Regarding `CCOc1cc(/C=C2\C(=O)N(CCc3ccc(OC)c(OC)c3)C(C)=C2C(=O)OC)ccc1O`, the “growth rescue (activation)” value is inactive: 26.3%. In the case of `CC(C)NC(=O)COC(=O)c1cccc(NS(=O)(=O)/C=C/c2ccccc2)c1`, the “growth rescue (activation)” value was inactive: 19.5%. On the same count and under the same terms, for `COc1ccc2nc(/C=N/NC(=O)[C@H](CCSC)NC(=O)OC(C)(C)C)ccc2c1` the value was inactive: 23.3%; for `Cc1ccccc1-c1cnc(C(O)c2ccc(Cl)c(F)c2)[nH]1` (stereo unspecified), inactive: 3.49%. `CC1S/C(=N/N=C/c2cccs2)NC1=O` (stereo unspecified): the “growth rescue (activation)” value is inactive: 7.5%.

As for `COc1ccccc1C1c2c(C)nn(-c3ccccc3)c2NC(=O)C1NC(=O)c1ccccc1` (stereo unspecified), the “growth rescue (activation)” value is inactive: 18.6%. Still for that read-out and setting: for `O=C(CN(C(=O)c1csnn1)c1cccc(F)c1)NCc1ccc2c(c1)OCO2` the value was inactive: -0.88%.

`COc1cc(/C=N/NC(=O)c2ccccn2)ccc1OC(=O)c1ccc(Br)cc1`: the “growth rescue (activation)” value is inactive: 12.7%. Still for that read-out and setting: for `CC1(C)Cc2c(cnn2-c2ccc(F)cc2)C(NC(=O)CCn2cncn2)C1` (stereo unspecified) the value was inactive: 13%.

As for `O=C(N/N=C/c1coc2ccccc2c1=O)c1ccc(Cl)cc1`, the “growth rescue (activation)” value is inactive: 3.33%. Regarding `O=C(COCC(=O)NCc1ccccc1)NCc1ccccc1`, the “growth rescue (activation)” value is inactive: 6.46%.

For `N#C/C(=C/c1ccc(CNS(=O)(=O)c2ccccc2)o1)C(=O)NCc1ccccc1`, the “growth rescue (activation)” value was inactive: 12.1%.

For the compound `CCOCCCNc1ccc(N2C(=O)C3CCCCC3C2=O)cc1[N+](=O)[O-]` (stereo unspecified), the “growth rescue (activation)” value was inactive: 21.9%.

For the compound `COC(=O)c1ccc(N=NN2CCOCC2)cc1`, the “growth rescue (activation)” value is inactive: 24.8%. The same measure, in the same setting: next, `O=C(CNC(=O)C1COc2ccccc2O1)Nc1ccc(F)c(F)c1` (stereo unspecified): inactive: 18.9%; `O=C(Nc1ccc2c(c1)OCO2)c1cc(C2CCCCN2C(=O)c2ccccc2)on1` (stereo unspecified): inactive: 11.3%; `COc1ccc(CCNC(=O)Cn2nnc3ccccc3c2=O)cc1`: inactive: -16%. `CC1CN(c2nc(-c3ccccc3)nnc2-c2ccccc2)CC(C)O1` (stereo unspecified): the Potency is active: 12.6 µM.

As to `NC(=S)N/N=C\c1c(OCc2ccccc2Cl)ccc2ccccc12`, the “growth rescue (activation)” value is inactive: -1.68%. Still for that read-out and setting: next, `CSc1nc2c(c(C(F)(F)F)n1)CC(C)CC2` (stereo unspecified): inactive: -28.2%.
